Test results from PubChem BioAssay AID504333 (National Center for Advancing Translational Sciences (NCATS), 2011).
About 16,000 (4.4%) of roughly 360,000 compounds were called active. The shares of active, inactive and inconclusive entries below differ from those in the screen. Calls follow the shape of the dose curve; as a rule, active = well fitted inhibition curve with a large enough effect; inconclusive = small, poorly fitted or top-dose-only effect; inactive = no such curve, though single readings can be large or run the other way. Potencies beside an inconclusive call are fits to weak or partial responses and may not hold up.

biological target: Bromodomain adjacent to zinc finger domain protein 2B (Homo sapiens) (UniProt Q9UIF8); experiment: qHTS Assay for Inhibitors of BAZ2B; settings: AlphaScreen BAZ2B-H3K14Ac peptide displacement; activity change, negative = inhibition: at 114 µM (top of the series) unless noted; also: nearly all actives have a fitted effect of over 60% in size
Outline: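 Multi-concentration screen (max 110 uM) measuring displacement of acetylated histone H3 peptide from BAZ2B by AlphaScreen, using 50 nM protein, 50 nM peptide and 10 ug/mL streptavidin donor plus Ni-chelate acceptor beads.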
% is scaled to controls: 0 for no effect and ±100 for the full control effect; potency is read from the fitted curve at half-maximal effect; tags tell the direction and shape of the fitted curve.

Chain of UniProt Q9UIF8 (Q9UIF8 whole entry, looked up, the tested form may be a part): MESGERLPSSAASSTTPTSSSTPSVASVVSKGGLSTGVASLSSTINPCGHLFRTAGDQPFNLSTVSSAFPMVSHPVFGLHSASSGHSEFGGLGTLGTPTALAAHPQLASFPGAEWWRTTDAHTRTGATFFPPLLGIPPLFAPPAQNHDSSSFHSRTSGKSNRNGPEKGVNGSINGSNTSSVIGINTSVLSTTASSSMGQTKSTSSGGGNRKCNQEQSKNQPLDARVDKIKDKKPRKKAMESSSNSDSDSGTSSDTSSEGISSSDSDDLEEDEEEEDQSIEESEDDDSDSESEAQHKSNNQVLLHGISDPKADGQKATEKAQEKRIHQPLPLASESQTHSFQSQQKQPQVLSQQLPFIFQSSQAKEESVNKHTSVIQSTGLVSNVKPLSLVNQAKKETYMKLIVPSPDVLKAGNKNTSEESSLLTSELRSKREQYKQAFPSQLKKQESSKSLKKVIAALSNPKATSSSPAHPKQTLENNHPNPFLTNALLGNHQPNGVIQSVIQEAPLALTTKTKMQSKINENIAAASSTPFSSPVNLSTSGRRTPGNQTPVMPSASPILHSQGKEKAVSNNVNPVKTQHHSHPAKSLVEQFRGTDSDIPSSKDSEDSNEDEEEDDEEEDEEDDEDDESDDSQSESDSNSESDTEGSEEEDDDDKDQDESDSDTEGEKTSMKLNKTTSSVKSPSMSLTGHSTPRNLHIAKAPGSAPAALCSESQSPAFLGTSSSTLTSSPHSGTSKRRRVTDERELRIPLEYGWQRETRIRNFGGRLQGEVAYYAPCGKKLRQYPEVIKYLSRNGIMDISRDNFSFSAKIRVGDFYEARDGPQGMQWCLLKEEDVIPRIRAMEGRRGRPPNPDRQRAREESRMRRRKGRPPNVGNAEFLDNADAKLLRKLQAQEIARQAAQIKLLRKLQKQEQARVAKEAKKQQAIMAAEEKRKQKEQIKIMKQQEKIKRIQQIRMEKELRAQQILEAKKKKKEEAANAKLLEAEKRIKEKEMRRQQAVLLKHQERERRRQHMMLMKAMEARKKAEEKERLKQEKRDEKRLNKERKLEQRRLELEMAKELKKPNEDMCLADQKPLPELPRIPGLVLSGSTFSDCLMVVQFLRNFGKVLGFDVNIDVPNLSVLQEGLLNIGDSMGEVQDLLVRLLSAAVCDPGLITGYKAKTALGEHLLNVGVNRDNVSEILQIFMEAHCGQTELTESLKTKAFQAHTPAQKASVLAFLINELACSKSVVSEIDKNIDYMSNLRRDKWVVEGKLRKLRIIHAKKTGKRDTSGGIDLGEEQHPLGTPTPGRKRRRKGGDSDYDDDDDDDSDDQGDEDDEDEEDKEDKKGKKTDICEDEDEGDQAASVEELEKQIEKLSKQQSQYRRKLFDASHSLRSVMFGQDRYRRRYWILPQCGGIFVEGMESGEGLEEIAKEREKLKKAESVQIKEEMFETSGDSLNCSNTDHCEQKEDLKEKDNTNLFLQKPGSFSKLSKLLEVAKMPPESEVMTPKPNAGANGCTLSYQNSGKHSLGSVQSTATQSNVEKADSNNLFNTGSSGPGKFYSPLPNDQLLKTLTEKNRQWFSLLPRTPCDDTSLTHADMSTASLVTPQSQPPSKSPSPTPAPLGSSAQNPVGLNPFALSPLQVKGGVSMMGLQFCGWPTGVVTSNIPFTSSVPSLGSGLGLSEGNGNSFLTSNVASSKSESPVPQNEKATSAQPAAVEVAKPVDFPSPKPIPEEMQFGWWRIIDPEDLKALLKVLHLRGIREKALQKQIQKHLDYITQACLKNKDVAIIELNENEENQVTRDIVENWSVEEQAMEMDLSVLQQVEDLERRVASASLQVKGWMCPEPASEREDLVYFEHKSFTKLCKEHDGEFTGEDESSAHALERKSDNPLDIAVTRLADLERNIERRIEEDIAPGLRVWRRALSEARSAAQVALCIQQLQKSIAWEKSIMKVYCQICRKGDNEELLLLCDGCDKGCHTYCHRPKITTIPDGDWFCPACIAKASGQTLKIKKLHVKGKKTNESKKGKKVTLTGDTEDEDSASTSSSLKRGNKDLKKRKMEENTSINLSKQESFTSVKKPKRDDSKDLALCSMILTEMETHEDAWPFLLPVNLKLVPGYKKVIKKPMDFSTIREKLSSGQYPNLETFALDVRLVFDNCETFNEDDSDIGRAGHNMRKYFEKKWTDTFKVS

| Compound | activity change, negative = inhibition | Potency |
| --- | --- | --- |
| COc1ccccc1CNC(=O)C(=O)Nc1ccc(C(=O)N2CCC(C)CC2)cc1 | inactive: -18.6% |  |
| Cc1ccc(Cl)cc1NC(=S)N(C)N | inactive: -1.28% |  |
| COc1ccccc1C(=O)N1CCN(c2cccc(Cl)c2)CC1 | inactive: -4.15% |  |
| COc1ccc(-c2sc3cc(OC)c(OC)cc3c2C#CCCO)cc1 |  | inconclusive: 89.1 µM [inhibitor, single point] |
| Cn1cnc2cc(NCc3ccc(Cl)cc3)ccc21 |  | inconclusive: 50.1 µM [inhibitor, partial curve] |
| COc1cc(-c2nc3sccn3c2Nc2cccc(C)c2)ccc1O |  | active: 12.6 µM |
| Cc1cccc(NC(=O)/C(C#N)=C\c2cn(CC(=O)O)c3ccccc23)c1 |  | inconclusive: 79.4 µM [inhibitor, single point] |
| O=C(CSc1nnc(-c2ccco2)n1Cc1ccccc1)OC1CCCCC1 |  | inconclusive: 89.1 µM [inhibitor, single point] |
| COc1ccccc1CNc1ccc([N+](=O)[O-])cc1C |  | inconclusive: 20 µM [inhibitor, full curve, poor fit] |
| O=CC(=O)c1ccccc1 |  | inconclusive: 89.1 µM [inhibitor, single point] |
| O=C(Nc1cc2c3c(c1)CC(=O)N3CCC2)c1ccc(Br)o1 | inactive: -27.5% |  |
| CC(=O)c1ccc(S(=O)(=O)NCCC(=O)NCCc2c[nH]c3ccccc23)cc1 |  | inconclusive: 89.1 µM [inhibitor, single point] |
| CN(C)c1ccc(CNC(=O)CCCN2C(=O)CCn3nc(-c4cccn4C)cc32)cc1 |  | active: 39.8 µM |
| COc1ccc(NC(=O)N2CCN(CCC#N)CC2)cc1 |  | inconclusive: 11.2 µM [inhibitor, single point] |
| O=C(CN(C(=O)CCC(=O)Nc1nccs1)c1cccc(C(F)(F)F)c1)NCC1CCCO1 (stereo not drawn) | inactive: -1.2% |  |
| COc1ccc(C(=O)Nc2ccc(-c3cc4ccccc4oc3=O)c(C)c2)cc1Br | inactive: -0.166% |  |
| Cc1cc(C)c(N=C2C(=O)Nc3ccccc32)c(C)c1 |  | inconclusive: 70.8 µM [inhibitor, single point] |
| Cc1ccc(O)c(CNCCNCc2cc(C)ccc2O)c1 |  | inconclusive: 20 µM [inhibitor, full curve, poor fit] |
| O=C(NNS(=O)(=O)c1ccccc1)c1ccc([N+](=O)[O-])cc1 | inactive: -15.9% |  |
| CCN(CC(=O)Nc1ccccc1C(F)(F)F)C(=O)c1ccc2[nH]c3c(c2c1)CC(C)CC3 (stereo not drawn) |  | inconclusive: 35.5 µM [inhibitor, full curve] |
| CCN(CC)S(=O)(=O)c1ccc(C(=O)NCCOC(=O)c2ccc(F)cc2F)cc1 | inactive: 1.11% |  |
| COC(=O)C1=C(C)N(Cc2ccco2)C(=O)N[C@@H]1c1cccc(C(F)(F)F)c1 |  | inconclusive: 79.4 µM [inhibitor, single point] |
| CC1C/C(=N\NC(=O)c2cccnc2)CC(C)(C)C1 (stereo not drawn) |  | inconclusive: 79.4 µM [inhibitor, partial curve] |
| Fc1cccc(NCc2cn3ccccc3n2)c1 |  | inconclusive: 39.8 µM [inhibitor, partial curve] |
| CCC(=O)N(CCc1ccc(S(N)(=O)=O)cc1)C1CC(=O)N(c2ccc(OC)cc2)C1=O (stereo not drawn) | inactive: -4.98% |  |

| Compound | activity change, negative = inhibition | Potency |
| --- | --- | --- |
| CCOC(=O)c1sc(NC(=O)CSc2nc(C)cc(-c3ccccc3)n2)c(C#N)c1C |  | inconclusive: 79.4 µM [inhibitor, single point] |
| O=[N+]([O-])c1ccc(N/N=C/c2cccc(O)c2)cc1 |  | inconclusive: 89.1 µM [inhibitor, single point] |
| Cc1occc1-c1nnc(SCC(=O)Nc2ccccc2)n1C | inactive: -25.9% |  |
| Cc1ccc(C(C)C)cc1OCCOCCN1CCCC1 |  | inconclusive: 79.4 µM [inhibitor, single point] |
| Cc1cc(C)n2c(SC/C(O)=C(\C#N)c3nc4ccccc4[nH]3)nnc2n1 | inconclusive: -50.5% [inhibitor] |  |
| Cc1ccc2oc(C(=O)N(CCO)Cc3ccccc3)c(C)c2c1 |  | inconclusive: 89.1 µM [inhibitor, single point] |
| CCCCOc1ccc(C2c3c(-c4ccccc4O)n[nH]c3C(=O)N2Cc2ccncc2)cc1OC (stereo not drawn) |  | inconclusive: 17.8 µM [inhibitor, full curve] |
| CCOC(=O)C1=C(CBr)NC(=O)NC1C (stereo not drawn) |  | active: 50.1 µM |
| Cc1nnc(N2CCC(C(=O)NC(C)C)CC2)c2nn(-c3ccc(Cl)cc3)c(C)c12 | inactive: -2.79% |  |
| Cc1ccc(NC(=O)c2ccc3c(=O)n4c(nc3c2)CCC4)cc1S(=O)(=O)N(C)C | inactive: -29.4% |  |
| Cc1noc(C)c1C(=O)Nc1sc(C)c(-c2ccccc2)c1C#N |  | inconclusive: 79.4 µM [inhibitor, single point] |
| FC(F)(F)c1cccc(NC(=S)NNC(=S)Nc2cccc(C(F)(F)F)c2)c1 |  | inconclusive: 50.1 µM [inhibitor, partial curve] |
| COc1ccc(Br)cc1/C=N/N1CCN(Cc2ccccc2)CC1 |  | active: 28.2 µM |
| COc1ccc(NC(=O)Cn2c(=O)oc3cc(S(=O)(=O)NC(C)C)ccc32)cc1OC | inactive: -1.42% |  |
| CCOc1ccc(C(=O)c2cn(CC(=O)Nc3cc(OC)cc(OC)c3)c3ccc(F)cc3c2=O)cc1 |  | active: 89.1 µM |
| c1ccc(-c2ccc(CNC3CC3)cc2)cc1 | inactive: -2.8% |  |
| Cc1cc(C)n2nc(SCC(=O)NCc3ccco3)nc2n1 |  | inconclusive: 89.1 µM [inhibitor, single point] |
| COc1ccc(C2C3=C(CC(C)(C)CC3=O)Oc3ncn(Cc4ccco4)c(=N)c32)cc1 (stereo not drawn) |  | active: 50.1 µM |
| CN(C(=O)c1cc(S(=O)(=O)N2CCc3ccccc32)cn1C)C1CCCCC1 |  | inconclusive: 89.1 µM [inhibitor, single point] |
| O=C(COC(=O)CSc1cccc2cccc(Cl)c12)Nc1ncc(C(F)(F)F)cc1Cl |  | active: 50.1 µM |
| COc1ccc(-c2nn(-c3ccccc3C)cc2CNCCc2cnc[nH]2)cc1F |  | inconclusive: 44.7 µM [inhibitor, partial curve] |
| O=C(NNC(=O)c1ccccc1F)c1ccc2nc[nH]c2c1 |  | inconclusive: 79.4 µM [inhibitor, single point] |
| CCn1c(CNC(=O)c2ccc(OC)cc2)nnc1SCC(=O)Nc1cccc(C)c1C | inactive: -0.397% |  |
| Cc1ccc(-c2[nH]c3ccccc3c2SCCN)cc1 |  | inconclusive: 44.7 µM [inhibitor, partial curve, poor fit] |
| CCCCC#Cc1ccccc1CC(=O)Nc1ccccc1 |  | inconclusive: 89.1 µM [inhibitor, single point] |

| Compound | activity change, negative = inhibition | Potency |
| --- | --- | --- |
| Cc1ccc(O)c(C2=Nc3ccccc3N=C(c3ccc([N+](=O)[O-])cc3)C2)c1 |  | inconclusive: 4.47 µM [inhibitor, full curve, poor fit] |
| CCOc1ccc(CCNC(=O)C2CCN(C(=O)N3CC(CC)Oc4ccc(C)cc43)CC2)cc1 (stereo not drawn) |  | inconclusive: 89.1 µM [inhibitor, single point] |
| COc1cccc(OC)c1OCCNC(C)(C)C |  | active: 50.1 µM |
| Clc1ccccc1C1SCC2Nc3ccccc3CN21 (stereo not drawn) |  | inconclusive: 35.5 µM [inhibitor, full curve] |
| COc1ccc(-c2csc(CCN3N=C(C)CC3=O)n2)cc1 |  | active: 39.8 µM |
| CCN(CC)c1ccc(C2C3CCCCC3(O)CCN2C(=O)c2cccs2)cc1 (stereo not drawn) |  | inconclusive: 39.8 µM [inhibitor, partial curve] |
| Cc1nc2ccc(Cl)cc2c(-c2ccccc2F)c1CC(=O)O |  | inconclusive: 79.4 µM [inhibitor, single point] |
| CNC(=S)Nc1ccc(OCc2ccccc2)cc1 | inactive: -35.3% |  |
| O=C(NCC(c1ccc2c(c1)OCO2)N1CCOCC1)c1ccccc1F (stereo not drawn) | inactive: 4.76% |  |
| CCOc1cc(/C=C2\NC(=S)N(C)C2=O)ccc1OCc1ccc(C(=O)O)cc1 |  | active: 70.8 µM |
| CN1Cc2sc(NC(=S)NC(=O)c3ccccc3)c(C#N)c2CC1(C)C |  | active: 44.7 µM |
| O=c1ccc2cc(S(=O)(=O)Nc3ccc(Br)cc3)ccc2o1 |  | inconclusive: 79.4 µM [inhibitor, single point] |
| COc1ccc(C2c3cccn3CCN2S(=O)(=O)c2ccccc2[N+](=O)[O-])cc1OC (stereo not drawn) |  | inconclusive: 89.1 µM [inhibitor, single point] |
| Fc1ccc(C(c2nnnn2Cc2cccs2)N2CCN(C3CCCC3)CC2)cc1 (stereo not drawn) |  | inconclusive: 89.1 µM [inhibitor, single point] |
| CC(=O)N1CCC2(CC1)C/C(=N\NC(=S)Nc1ccc(C)cc1)c1cc(O)ccc1O2 |  | inconclusive: 35.5 µM [inhibitor, partial curve] |
| CCc1nc(Nc2cccc(F)c2)c2oc3ccccc3c2n1 |  | inconclusive: 89.1 µM [inhibitor, single point] |
| CC(=O)c1ccc(N2CCN(CN3C(=O)CC4(CCCC4)C3=O)CC2)c(F)c1 | inactive: 0.673% |  |
| CN(C)C(CNC(=O)c1ccc(-c2ccccc2)cc1)c1ccccc1 (stereo not drawn) |  | inconclusive: 89.1 µM [inhibitor, single point] |
| Cc1ccc(S(=O)(=O)N2CCN(CC(=O)NC3CCCc4ccccc43)CC2)c(C)c1 (stereo not drawn) | inactive: -7.1% |  |
| COC(=O)CN1C(=O)S/C(=C/c2cc(C)n(C)c2C)C1=O |  | inconclusive: 89.1 µM [inhibitor, single point] |
| CC(C)[C@H](NC(=O)c1ccccc1Cl)C(=O)Nc1nc(-c2ccccn2)cs1 |  | active: 31.6 µM |
| CC(C)Oc1cccc(C(=O)NC(=S)Nc2ccc(N3CCN(C)CC3)cc2)c1 |  | active: 39.8 µM |
| CCOc1ccc(-n2c(SCc3ccc([N+](=O)[O-])cc3)nnc2-c2ccc(OC)cc2)cc1 |  | inconclusive: 79.4 µM [inhibitor, partial curve] |
